Laboratory results: PubChem BioAssay AID1347073 (National Center for Advancing Translational Sciences (NCATS), 2019)
The whole screen tested about 45,000 compounds, of which about 200 (0.44%) were called active. Inconclusive results (about 7%) are left out. The call rests on the fitted dose curve; in most records, active means well fitted activation curve with a large enough effect; inconclusive means small, poorly fitted or top-dose-only effect; inactive means no such curve, though single readings can be large or run the other way. Some of the results follow.

Test: qHTS of TDP-43 Inhibitors: NCGC Sytravon Library Screen; further: 0% is about no effect; nearly all actives have a fitted effect of over 55% in size
Details: yeast TDP-43 toxicity rescue, BacTiter-Glo growth, 24 h; series mostly up to 46.1 µM; growth rescue (activation): at the top concentration
Procedure, shortened: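 TDP-43-expressing yeast, pregrown in raffinose, seeded at OD600 0.02 in galactose medium with compound for 24 hr at 30 deg C. Growth read by BacTiter-Glo luminescence, so rescue of toxicity appears as activation.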

Row | Structure (SMILES) | growth rescue (activation)
1 | COc1cc(-c2cc(C(=O)Nc3cc(S(=O)(=O)N4CCOCC4)ccc3O)c3ccccc3n2)cc(OC)c1OC | inactive: 15.6%
2 | COc1ccc(C(=O)N2CCCCC2c2cc(C(=O)NCc3ccccc3)no2)cc1 (stereo not drawn) | inactive: -2.14%
3 | COc1ccc(C(=O)OCC(=O)NC2CCCC2)c(OC)c1OC | inactive: -5.53%
4 | CC(=O)Nc1nnc(SCC(=O)NC2CCCC2)s1 | inactive: -10.4%
5 | Cc1cc(-c2nnc(CCC(=O)NC(Cc3ccccc3)c3ccccc3)o2)no1 (stereo not drawn) | inactive: 12%
6 | CCOc1cc2ccccc2cc1C(=O)Nc1ccccn1 | inactive: -6.08%
7 | COc1ccccc1NS(=O)(=O)c1cc(NC(=O)Cc2n[nH]c(=O)c3ccccc23)ccc1Cl | inactive: 14.9%
8 | O=C(O)c1cccc(S(=O)(=O)N2CCN(C(c3ccccc3)c3ccccc3)CC2)c1 | inactive: -2.08%
9 | O=C(CN1CCN(c2ccccc2F)CC1)c1ccc(O)c(O)c1 | inactive: -19.3%
10 | N=c1oc2ccc(Br)cc2cc1C(=O)NCc1ccccc1 | inactive: -4.85%
11 | COc1cccc2c(=S)c(CCC(C)=O)c(C)[nH]c12 | inactive: 9.28%
12 | COC(=O)C1CN(S(=O)(=O)c2ccc(NC(C)=O)cc2)CCS1 (stereo not drawn) | inactive: -5.85%
13 | CN1C(=O)c2cccc3c(S(=O)(=O)N4CCCC4C(=O)O)ccc1c23 (stereo not drawn) | inactive: -0.234%
14 | O=C(NC(=S)Nc1ccccc1N1CCOCC1)c1ccc(-c2ccccc2F)o1 | inactive: 10.2%
15 | CCOc1ccc(NCc2cccn2-c2nnc(N3CCC(C(=O)NCCOC)CC3)s2)cc1 | inactive: 0.801%
16 | COc1ccc(N(CC(=O)NCCC(C)C)C(=O)c2snc(C(=O)NC3CCCCC3)c2N)c(OC)c1 | inactive: 11.2%
17 | CCOc1ccc(C(=O)NCC(=O)N2CCCC2)cc1 | inactive: -6.46%
18 | COc1ccccc1/C=C/c1nc(C#N)c(NCCc2ccccc2)o1 | inactive: 4.53%
19 | O=C(O)CC(NC(=O)Cc1ccc(Cl)cc1)c1ccco1 (stereo not drawn) | inactive: -14.9%
20 | CCCOC(=O)c1ccc(NC(=O)C(CC)CC)cc1 | inactive: 9.01%
21 | CCc1cc2c(SC(C)C(=O)NC3CCCC3)ncnc2s1 (stereo not drawn) | inactive: 29.1%
22 | O=C(CCC(=O)Nc1ccccc1Cl)NNC(=O)C1CCCCC1 | inactive: 22.6%
23 | Cc1ccc(CN2CCN(/N=C/c3ccc(C(=O)O)cc3)CC2)c(C)c1 | inactive: 7.4%
24 | CCc1nc2cc3sc(CC)nc3cc2s1 | inactive: 13.5%
25 | CN1C(=O)c2ccccc2N(C)C1c1cccc(O)c1 (stereo not drawn) | inactive: 6.28%
26 | Cc1ccc(-c2cc(-c3ccc(F)cc3)c(C#N)c(N)n2)o1 | inactive: -6.47%
27 | CN(C)c1ccc(CNC(=O)C2Cc3c(-c4ccccc4Oc4ccccc4)ccnc3O2)cc1 (stereo not drawn) | inactive: 29.2%

Row | Structure (SMILES) | growth rescue (activation)
28 | COc1ccc(N=C2O/C(=C/c3sc(=S)n(CC4CCCO4)c3O)N=C2C#N)cc1 (stereo not drawn) | inactive: -23.3%
29 | O=C(CCCC(=O)N(CC(=O)NC1CCCCC1)c1ccc(F)cc1)Nc1ccccn1 | inactive: 0.889%
30 | CC(C)(C)NC(=O)C(=O)NN=C1CCCCCCCCCCC1 | inactive: 5.91%
31 | O=C1CN(S(=O)(=O)c2ccccc2Cl)CCN1 | inactive: 10.9%
32 | Cc1nc2ccc(S(=O)(=O)N(C)CC(=O)Nc3cccc(C(F)(F)F)c3)cc2s1 | inactive: 14.1%
33 | Cc1ccc(CN2CCNC(=O)C2CC(=O)NC2CCCCCC2)o1 (stereo not drawn) | inactive: -4.88%
34 | Cc1ccc(C(=O)/C=C/c2cn(CC(O)CN3CCOCC3)c3ccccc23)cc1 (stereo not drawn) | inactive: 21%
35 | CC(=O)N1CCc2cc(Br)cc(S(=O)(=O)N3CCCCC3)c21 | inactive: 11.2%
36 | O=c1cc(CSc2ccccc2)nc(-c2ccccc2)[nH]1 | inactive: 6.97%
37 | O=C(O)COc1ccccc1/C=C1\SC(=O)N(Cc2ccc(F)cc2)C1=O | inactive: 19.3%
38 | COc1ccccc1CNC(=O)[C@@H]1CCCN1S(=O)(=O)c1ccccc1F | inactive: 10.6%
39 | CNc1oc(-c2ccco2)nc1C#N | inactive: 14.8%
40 | CC(=O)Oc1cc2oc(=O)cc(C)c2cc1Cl | inactive: 24.8%
41 | Cc1ccc(S(=O)(=O)NC(=O)C2(C)CCN2C(=O)Cc2ccc(C(C)(C)C)cc2)nc1 (stereo not drawn) | inactive: 18.8%
42 | CC1(C)Cc2c(c(N3CCOCC3)nc3sc4c(NCC5CCCO5)nnnc4c23)CS1 (stereo not drawn) | inactive: 4.31%
43 | Cc1ccc2c(c1)C1CN(C)CCC1N2C(=O)COc1ccccc1F (stereo not drawn) | inactive: 8.04%
44 | COc1ccc(Nc2nc(N3CCN(S(C)(=O)=O)CC3)nc3ccccc23)c(OC)c1 | inactive: 9.85%
45 | Cc1ccc(C(=O)Nc2ccccc2C(=O)N2CCCC(C)C2)cc1 (stereo not drawn) | inactive: -2.09%
46 | CCOc1ccc(Cc2nc(C)c(CC(=O)N3CCOCC3)c(=O)[nH]2)cc1 | inactive: 7.78%
47 | CCOCCCNC(=O)C1CCN(S(=O)(=O)c2cc(Br)cc3c2N(C(=O)CC)CC3)CC1 | inactive: -4.97%
48 | COc1ccc(-n2c(N)c(C#N)c3ccc([N+](=O)[O-])cc3c2=O)cc1 | inactive: 5.2%
49 | CN(Cc1ccccc1)C(=O)c1ccc(Nc2nc(CN)cs2)nc1 | inactive: 6.37%
50 | Cc1cccc(-c2c(O)cc(=O)[nH]c2Cl)c1 | inactive: -4.49%
51 | CCC(=O)N1CCc2cc(Br)cc(S(=O)(=O)CCC(=O)N(CC)CC)c21 | inactive: 12.7%
52 | COc1ccc(C(=O)NC2CCN(S(=O)(=O)c3ccccc3)CC2)cc1 | inactive: -4.55%
53 | Cc1cccc2cc(CN(Cc3cccs3)C(=S)NCC3CCCO3)c(=O)[nH]c12 (stereo not drawn) | inactive: 21.7%
